Results reported in PubChem BioAssay AID624417 (National Center for Advancing Translational Sciences (NCATS), 2012).
Out of some 410,000 compounds screened, about 6,400 (1.6%) were called active. The inconclusive results got no clear call from the source; some entries with a clear call stand among them for comparison. Calls come from the whole dose curve; as a rule, active = well fitted inhibition curve with a large enough effect; inconclusive = small, poorly fitted or top-dose-only effect; inactive = no such curve, though single readings can be large or run the other way. No potency is given beside an inconclusive call; the fits are too rough.

What follows are compounds tested against Glucagon-like peptide 1 receptor (Homo sapiens) (UniProt P43220) (assay: qHTS of GLP-1 Receptor Inverse Agonists (Inhibition Mode)). Conditions: HEK293 GLP-1R CRE-luciferase, luminescence, 24 h, GLP-1R form is constitutively active; series mostly up to 38.3 µM.
How it was run: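 Luminescence readout: a drop in cAMP-driven luciferase signal flags inverse agonism at a constitutively active GLP-1R stably expressed in HEK293. Compound exposure lasted 24 hr at 37 deg C, 5% CO2.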
Note: nearly all actives have a fitted effect of over 55% in size.
Potency is the fitted concentration of half-maximal effect; tags give direction and shape of the fitted curve.

Sequence of UniProt P43220 (P43220 whole entry, looked up): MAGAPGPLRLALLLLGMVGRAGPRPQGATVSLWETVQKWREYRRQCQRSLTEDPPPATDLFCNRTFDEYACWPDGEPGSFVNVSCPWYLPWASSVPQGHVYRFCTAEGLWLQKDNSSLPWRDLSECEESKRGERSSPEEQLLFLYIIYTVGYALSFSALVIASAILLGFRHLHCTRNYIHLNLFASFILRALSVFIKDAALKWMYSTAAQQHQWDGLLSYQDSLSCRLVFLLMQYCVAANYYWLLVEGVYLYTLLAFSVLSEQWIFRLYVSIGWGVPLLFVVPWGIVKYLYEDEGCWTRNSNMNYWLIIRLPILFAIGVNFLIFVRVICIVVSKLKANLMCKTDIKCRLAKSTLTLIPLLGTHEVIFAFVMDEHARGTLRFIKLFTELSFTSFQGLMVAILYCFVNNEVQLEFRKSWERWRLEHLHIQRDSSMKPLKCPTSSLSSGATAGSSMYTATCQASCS

SMILES | Potency
COc1ccc(C(=O)C2CCN(CC(=O)Nc3ccc(C)cc3)CC2)cc1 | inconclusive [inhibitor, single point]
COc1ccc(-c2nc(CS(=O)(=O)CC(=O)NCc3ccccc3Br)c(C)o2)cc1 | inconclusive [inhibitor, single point]
O=C(NCCCN1CCCCCC1)c1ccc2c(c1)sc1nc(-c3ccccc3)cn12 | inconclusive [inhibitor, single point]
COc1cc(NC(=O)N2CCNC2=O)cc(C(=O)Nc2cccc(C(F)(F)F)c2)c1 | inconclusive [inhibitor, full curve]
O=[N+]([O-])c1cc(S(=O)(=O)Nc2ccccc2)ccc1N1CCN(c2ccc(O)cc2)CC1 | inconclusive [inhibitor, partial curve, poor fit]
COc1ccc(C(=O)CCN2CCN(c3ccc(OC)cc3)CC2)cc1 | inconclusive [inhibitor, single point]
CCCCc1cc(=O)oc2cc(C)cc(OC(C)C(=O)O)c12 (stereo unspecified) | inactive
CCS(=O)(=O)c1nc(S(=O)(=O)c2ccc(Cl)cc2)c(N2CCC3(CC2)OCCO3)s1 | inconclusive [inhibitor, partial curve, poor fit]
CCN(CC)C(=O)CC(c1ccc2c(c1)OCO2)c1c(OC)cc(OC)c2c(-c3ccccc3)cc(=O)oc12 (stereo unspecified) | inconclusive [inhibitor, single point]
CC(c1ccccc1)n1c(SCC(=O)Nc2ccccc2)n[nH]c1=O (stereo unspecified) | inconclusive [inhibitor, full curve]
CC(=O)Nc1sc(C)c(C)c1C(=O)OCC(=O)Nc1ccccc1 | inconclusive [inhibitor, partial curve, poor fit]
Cc1ccccc1OCc1nc2ccccc2c(=O)n1/N=C/c1cn[nH]c1-c1ccccc1 | inconclusive [inhibitor, single point]
Cc1cc(OC(C)C(=O)Nc2cccc(-c3nc4ccccc4o3)c2)cc(C)c1Cl (stereo unspecified) | inconclusive [inhibitor, single point]
CCN(CC)CCCN(Cc1cc2ccc(C)c(C)c2[nH]c1=O)C(=O)NC1CCCCC1 | inactive
O=[N+]([O-])c1cc(C(F)(F)F)cc([N+](=O)[O-])c1NCCNC(=S)Nc1cccc(F)c1 | inconclusive [inhibitor, partial curve, poor fit]
Cc1ccc2nc(SC(C)C(=O)NC3CCCC3)[nH]c2c1 (stereo unspecified) | inconclusive [inhibitor, partial curve, poor fit]
